# Results: the supplement of paper PMC8728848
# This is one part of the list.
# How the values were obtained:
# Experiment in all cases: glycan array binding signal (z-score within array); higher = stronger binding
# Conditions in all cases: glycan notation: IUPAC condensed, linker removed
# [1] = target: Gal(b1-4)GlcNAc(b1-3)Gal(b1-4)GlcNAc(b1-3)Gal(b1-4)GlcNAc(b1-3)Gal(b1-4)GlcNAc(b1-2)Man(a1-3)[Gal(b1-4)GlcNAc(b1-3)Gal(b1-4)GlcNAc(b1-3)Gal(b1-4)GlcNAc(b1-3)Gal(b1-4)GlcNAc(b1-2)Man(a1-6)]Man(b1-4)GlcNAc(b1-4)[Fuc(a1-6)]GlcNAc
# In short: (§1)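 From the Consortium for Functional Glycomics database, 3228 arrays were curated, keeping only those whose protein sequence was available. Binding is given as a within-array Z-score averaged across arrays sharing a protein sequence and across linkers. Negative Z-scores can be read as non-binding.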
# [2] = target: Gal(b1-4)GlcNAc(b1-3)Gal(b1-4)GlcNAc(b1-3)Gal(b1-4)GlcNAc(b1-3)Gal(b1-4)GlcNAc(b1-2)[Gal(b1-4)GlcNAc(b1-3)Gal(b1-4)GlcNAc(b1-3)Gal(b1-4)GlcNAc(b1-3)Gal(b1-4)GlcNAc(b1-6)]Man(a1-6)[Gal(b1-4)GlcNAc(b1-3)Gal(b1-4)GlcNAc(b1-3)Gal(b1-4)GlcNAc(b1-3)Gal(b1-4)GlcNAc(b1-2)Man(a1-3)]Man(b1-4)GlcNAc(b1-4)[Fuc(a1-6)]GlcNAc
# In short: as §1
# [3] = target: Gal(b1-4)GlcNAc(b1-3)Gal(b1-4)GlcNAc(b1-3)Gal(b1-4)GlcNAc(b1-3)Gal(b1-4)GlcNAc(b1-3)Gal(b1-4)GlcNAc(b1-2)Man(a1-3)[Gal(b1-4)GlcNAc(b1-3)Gal(b1-4)GlcNAc(b1-3)Gal(b1-4)GlcNAc(b1-3)Gal(b1-4)GlcNAc(b1-3)Gal(b1-4)GlcNAc(b1-2)Man(a1-6)]Man(b1-4)GlcNAc(b1-4)GlcNAc
# In short: as §1
# [4] = target: Gal(b1-4)GlcNAc(b1-3)Gal(b1-4)GlcNAc(b1-3)Gal(b1-4)GlcNAc(b1-3)Gal(b1-4)GlcNAc(b1-3)Gal(b1-4)GlcNAc(b1-2)Man(a1-3)[Gal(b1-4)GlcNAc(b1-3)Gal(b1-4)GlcNAc(b1-3)Gal(b1-4)GlcNAc(b1-3)Gal(b1-4)GlcNAc(b1-3)Gal(b1-4)GlcNAc(b1-2)Man(a1-6)]Man(b1-4)GlcNAc(b1-4)[Fuc(a1-6)]GlcNAc
# In short: as §1
# [5] = target: Gal(b1-4)GlcNAc(b1-3)Gal(b1-4)GlcNAc(b1-3)Gal(b1-4)GlcNAc(b1-3)Gal(b1-4)GlcNAc(b1-3)Gal(b1-4)GlcNAc(b1-2)[Gal(b1-4)GlcNAc(b1-3)Gal(b1-4)GlcNAc(b1-3)Gal(b1-4)GlcNAc(b1-3)Gal(b1-4)GlcNAc(b1-3)Gal(b1-4)GlcNAc(b1-6)]Man(a1-6)[Gal(b1-4)GlcNAc(b1-3)Gal(b1-4)GlcNAc(b1-3)Gal(b1-4)GlcNAc(b1-3)Gal(b1-4)GlcNAc(b1-3)Gal(b1-4)GlcNAc(b1-2)Man(a1-3)]Man(b1-4)GlcNAc(b1-4)[Fuc(a1-6)]GlcNAc
# In short: as §1
# [6] = target: Gal(b1-4)GlcNAc(b1-3)Gal(b1-4)GlcNAc(b1-3)Gal(b1-4)GlcNAc(b1-3)Gal(b1-4)GlcNAc(b1-3)Gal(b1-4)GlcNAc(b1-3)Gal(b1-4)GlcNAc(b1-2)Man(a1-3)[Gal(b1-4)GlcNAc(b1-3)Gal(b1-4)GlcNAc(b1-3)Gal(b1-4)GlcNAc(b1-3)Gal(b1-4)GlcNAc(b1-3)Gal(b1-4)GlcNAc(b1-3)Gal(b1-4)GlcNAc(b1-2)Man(a1-6)]Man(b1-4)GlcNAc(b1-4)GlcNAc
# In short: as §1
# [7] = target: Gal(b1-4)GlcNAc(b1-3)Gal(b1-4)GlcNAc(b1-3)GalNAc
# In short: as §1
# [8] = target: Gal(b1-4)GlcNAc(b1-3)Gal(b1-4)GlcNAc(b1-3)[Gal(b1-4)GlcNAc(b1-3)Gal(b1-4)GlcNAc(b1-6)]GalNAc
# In short: as §1
# [9] = target: Gal(b1-4)GlcNAc(b1-3)Gal(b1-4)GlcNAc(b1-6)[Gal(b1-3)]GalNAc
# In short: as §1
# [10] = target: Gal(b1-4)GlcNAc(b1-3)Gal(b1-4)[Fuc(a1-3)]GlcNAc(b1-3)Gal(b1-4)[Fuc(a1-3)]GlcNAc
# In short: as §1
# [11] = target: Gal(b1-4)GlcNAc(b1-3)GalNAc
# In short: as §1
# [12] = target: Gal(b1-4)GlcNAc(b1-3)[Fuc(a1-3)GlcNAc(b1-6)]Gal(b1-4)Glc
# In short: as §1
# [13] = target: Gal(b1-4)GlcNAc(b1-3)[Fuc(a1-3)[Gal(b1-4)]GlcNAc(b1-6)]Gal(b1-4)Glc
# In short: as §1
# [14] = target: Gal(b1-4)GlcNAc(b1-3)[Gal(b1-4)GlcNAc(b1-6)]Gal(b1-4)Glc
# In short: as §1
# [15] = target: Gal(b1-4)GlcNAc(b1-3)[Gal(b1-4)GlcNAc(b1-6)]Gal(b1-4)GlcNAc
# In short: as §1
# [16] = target: Gal(b1-4)GlcNAc(b1-3)[Gal(b1-4)GlcNAc(b1-6)]Gal(b1-4)GlcNAc(b1-3)Gal(b1-4)Glc
# In short: as §1
# [17] = target: Gal(b1-4)GlcNAc(b1-3)[Gal(b1-4)GlcNAc(b1-6)]Gal(b1-4)GlcNAc(b1-3)[Gal(b1-4)GlcNAc(b1-6)]Gal(b1-4)GlcNAc(b1-3)Gal(b1-4)Glc
# In short: as §1
# [18] = target: Gal(b1-4)GlcNAc(b1-3)[Gal(b1-4)GlcNAc(b1-6)]Gal(b1-4)GlcNAc(b1-3)[Gal(b1-4)GlcNAc(b1-6)]Gal(b1-4)GlcNAc(b1-3)[Gal(b1-4)GlcNAc(b1-6)]Gal(b1-4)GlcNAc(b1-3)Gal(b1-4)Glc
# In short: as §1
# [19] = target: Gal(b1-4)GlcNAc(b1-3)[Gal(b1-4)GlcNAc(b1-6)]Gal(b1-4)GlcNAc(b1-3)[Gal(b1-4)GlcNAc(b1-6)]Gal(b1-4)GlcNAc(b1-3)[Gal(b1-4)GlcNAc(b1-6)]Gal(b1-4)GlcNAc(b1-3)[Gal(b1-4)GlcNAc(b1-6)]Gal(b1-4)GlcNAc(b1-3)Gal(b1-4)Glc
# In short: as §1
# [20] = target: Gal(b1-4)GlcNAc(b1-3)[Gal(b1-4)GlcNAc(b1-6)]GalNAc
# In short: as §1
# [21] = target: Gal(b1-4)GlcNAc(b1-3)[GlcNAc(b1-6)]Gal(b1-4)GlcNAc
# In short: as §1
# [22] = target: Gal(b1-4)GlcNAc(b1-6)Gal(b1-4)GlcNAc
# In short: as §1
# [23] = target: Gal(b1-4)GlcNAc(b1-6)Gal(b1-4)GlcNAc(b1-6)GalNAc
# In short: as §1
binder,measurement,setting,value
"CLEC5A (Homo sapiens), Q9NY25 (protein) MNWHMIISGLIVVVLKVVGMTLFLLYFPQIFNKSNDGFTTTRSYGTVSQIFGSSSPSPNGFITTRSYGTVCPKDWEFYQARCFFLSTSESSWNESRDFCKGKGSTLAIVNTPEKLKFLQDITDAEKYFIGLIYHREEKRWRWINNSVFNGNVTNQNQNFNCATIGLTKTFDAASCDISYRRICEKNAK",glycan array binding signal (z-score),[1],1.88
same,glycan array binding signal (z-score),[2],0.096
same,glycan array binding signal (z-score),[3],1.44
same,glycan array binding signal (z-score),[4],1.38
same,glycan array binding signal (z-score),[5],0.25
same,glycan array binding signal (z-score),[6],-0.035
same,glycan array binding signal (z-score),[7],-0.121
same,glycan array binding signal (z-score),[8],0.236
same,glycan array binding signal (z-score),[9],0.021
same,glycan array binding signal (z-score),[10],0.009
same,glycan array binding signal (z-score),[11],-0.368
same,glycan array binding signal (z-score),[12],-0.199
same,glycan array binding signal (z-score),[13],-0.031
same,glycan array binding signal (z-score),[14],-0.031
same,glycan array binding signal (z-score),[15],-0.198
same,glycan array binding signal (z-score),[16],-0.32
same,glycan array binding signal (z-score),[17],-0.32
same,glycan array binding signal (z-score),[18],-0.32
same,glycan array binding signal (z-score),[19],-0.32
same,glycan array binding signal (z-score),[20],0.073
same,glycan array binding signal (z-score),[21],-0.048
same,glycan array binding signal (z-score),[22],0.149
same,glycan array binding signal (z-score),[23],-0.064
